The labels stand for the following.
B1: OR4K15 (parent)
chain: GUUAACGGUCAUAGGCCAUGGAAACUAGGAGCACCAUUUCGCUGCCAGUGAAGAAAUGAACAAAGAAAAUCUGGGCCAGGCAGGCAUCAAAAGAAAUAGUCUUGCGCUCAACCAGAAAGUCUGUAAUCAUUUUAAGGGUA

This passage reports self-cleavage results from the RNAGym collection of RNA variant scans (doi:10.7554/elife.90254).

Read counts are not given, so values of variants with three or more changes are uncertain.

The variants in this data set derive from B1. Briefly: self-cleavage, relative activity (ratio to wild type); higher = more cleavage; in vitro, sequencing; the parent is a self-cleaving ribozyme.
For the variant GUUAACGGUCAUAGGCCAUGGAAACUAGGAGCACCAUUUCGCUGCCAGUGAUGAAAUGAACAAAGAAAAUCUGGGCCAGGCAGGCAUCAAAAGAAAUAGUCUUGCGCUCAACCAGAAAGUCUGCAGUCAUUUUAAGGGUA [A52U U124C A126G], the self-cleavage amounted to 0.69.
As for GUUAACGGUCAUAGGCCAUGGAAACUAGGAGCACCAUUUCGCUGCCAGUGAUGAAAUGAACAAAGAAAAUCUGGGCCAGGCAGGCAUCAAAAGAAGUAGUCUUGCGCUCAACCAGAAAGCCUGUAAUCAUUUUAAGGGUA [A52U A96G U120C], the self-cleavage was determined as 1.46.
The value for GUUAACGGUCAUAGGCCAUGGAAACUAGGAGCACCAUUUCGCUGCCAGUGAUGAAAUGAACAAAGAAAAUCAGGGCCAGGCAGGCAUCAAAAGAAAUAGUCUUGCGCUCAACCAGAAAGUCCGUAAUCAUUUUAAGGGUA [A52U U72A U122C] was 0.11; that for GUUAACGGUCAUAGGCCAUGGAAACUAGGAGCACCAUUUCGCUGCCAGUGAAGGGAUGAACAAAGAAAAUCUGGGCCGGGCAGGCAUCAAAAGAAAUAGUCUUGCGCUCAACCAGAAAGUCUGUAAUCAUUUUAAGGGUA [A54G A55G A78G] was 0.17.
The value for GUUAACGGUCAUAGGCCAUGGAAACUAGGAGCACCAUUUCGCUGCCAGUGAAGGGAUGAACAAAGAAAAUCCGGGCCAGGCAGGCAUCAGAAGAAAUAGGCUUGCGCUCAACCAGAAAGUCCGUAAUCAUUUUAAGGGUA [A54G A55G U72C A90G U100G U122C] was 0.14; that for GUUAACGGUCAUAGGCCAUGGAAACUAGGAGCACCAUUUCGCUGCCAGUGAUGAAAUGAACAGGGAAAAUCUGGGCCAGGCAGGCAUCAAAAGAAAUAGUCUUGCGCUCAACCAGAAAGUCAGUAAUCAUUUUAAGGGUA [A52U A63G A64G U122A] was 1.02.
On to GUUAACGGUCAUAGGCCAUGGAAACUAGGAGCACCAUUUCGCUGCCAGUGAGGAAAUGAACAAAGAAAAUCUGGGCCAGGCAGGCAUCAAAAGAAAUAGUCUUGCGCUCAACCAGAAAGACUGUAAUCAUUUUAGGGGUA [A52G U120A A135G], for which the self-cleavage was determined as 0.66.
The value for GUUAACGGUCAUAGGCCAUGGAAACUAGGAGCACCAUUUCGCUGCCAGUGAAUAAAUGAACAACGAAAAUCUGGGCCAGGCAGGCGUCAAAGGAAAUAGUCUUGCGCUCAACCAGAAAGUCUGUAAUCAUUUUAAGGGUA [G53U A64C A86G A92G] was 1.28; that for GUUAACGGUCAUAGGCCAUGGAAACUAGGAGCACCAUUUCGCUGCCAGUGAUGAAAUGAACAAAGAAAAUCUGGGCCAGGCAGGCAUCAAAGGAAAUAGCCUUGCGCUCAACCAGAAAGUCUGUAAUCAUUUUAAGGGUA [A52U A92G U100C] was 2.31; that for GUUAACGGUCAUAGGCCAUGGAAACUAGGAGCACCAUUUCGCUGCCAGUGAGGAAAUGAACAAAGAAAAUCUGGGCCAGGCAGGCAUCAAAAGAAAUAGUCUUGCGCUCAACCAGAAAGUCUGUAAGCACUUUAAGGGUA [A52G U127G U130C] was 0.98.
The value for GUUAACGGUCAUAGGCCAUGGAAACUAGGAGCACCAUUUCGCUGCCAGUGAAGCAAUGAACAAAGAAAAUCUGGGCCAGGCAGGCAUCAAAAGAAAUAGUCCUGCGCUCAACCCGAAAGUCUGUAAUCCUUUUAAGGGUA [A54C U102C A114C A129C] was 0.01; that for GUUAACGGUCAUAGGCCAUGGAAACUAGGAGCACCAUUUCGCUGCCAGUGAUGAAAUGAACAAAGAAAAUCUGGGCCAGGCAGGCAUCAAAAGAAAUAGUCUUGCGCUCAACCAGACGGUCUGUAAUCAUUUUAAGGGUA [A52U A117C A118G] was 0.22; that for GUUAACGGUCAUAGGCCAUGGAAACUAGGAGCACCAUUUCGCUGCCAGUGAAGCAAUGAACAAAGAAAAUCUGGGCCAGGCAGGCAUCAAAGGGAAUAGUCUUGCGCUCAACCAGAAAGUCUGUAAUCAUUUUAAGGGUA [A54C A92G A94G] was 1.69.
The value for GUUAACGGUCAUAGGCCAUGGAAACUAGGAGCACCAUUUCGCUGCCAGUGAAGGGAAGAACAAAGAAAAUCUGGGCCAGGCAGGCAUCAAAAGAAAUAGUCUUGCGCUCAACCAGAAAGUCUGUAAUCAUUUUAAGGGUA [A54G A55G U57A] was 0.62; that for GUUAACGGUCAUAGGCCAUGGAAACUAGGAGCACCAUUUCGCUGCCAGUGAGGAAAUGAACAAAGAAAAUCUGGGCCAGGCAGGCAUCAAAAGAAAUAGUCUUGCGCUCAACCAGAAAGCCUGUACUCAUUUUAAGGGUA [A52G U120C A126C] was 0.66; that for GUUAACGGUCAUAGGCCAUGGAAACUAGGAGCACCAUUUCGCUGCCAGUGAAAAAAUGAACAAAGAAAAUCUGGGCCAGGCGGGCAUCAAAGGAGAUAGUCUUGCGCUCAACCAGAAAGUCUGUAAUCAUUUUAAGGGUA [G53A A82G A92G A95G] was 0.97.
GUUAACGGUCAUAGGCCAUGGAAACUAGGAGCACCAUUUCGCUGCCAGUGAAGGGAUGAACAAAGAAAAUCUGGGCCAGGCAGGCAUCAAAAGAAAUAGUCUUGCGCUCAACCAGAAAGUCUGUAAUCAUUUUGAGGGUA [A54G A55G A134G]: the self-cleavage turned out to be 0.94.
The value for GUUAACGGUCAUAGGCCAUGGAAACUAGGAGCACCAUUUCGCUGCCAGUGAGGAAAUGAACAAAGAAAAUCUGGGCCAGGCAGGCAUCAAAAGAAAUAGUCUCGCGCUCAACCAGAAAGUCUGUAACCAUUUUAAGGGUA [A52G U103C U127C] was 1.01; that for GUUAACGGUCAUAGGCCAUGGAAACUAGGAGCACCAUUUCGCUGCCAGUGAUGAAGUGAACAAAGAAAAUCUGGGCCGGGCAGGCAUCAAAAGAAAUAGUCUUGCGCUCAACCAGAAAGUCUGUAAUCAUUUUAAGGGUA [A52U A56G A78G] was 0.24.
The value for GUUAACGGUCAUAGGCCAUGGAAACUAGGAGCACCAUUUCGCUGCCAGUGAUGAAAUGAACAAAGAGAAUCUGGGCCAGGCAGGCAUCAAAAGAAAUGGUCUUGCGCUCAACCAGAAAGUCUGUAAUCAUUUUAAGGGUA [A52U A67G A98G] was 0.31.
The value for GUUAACGGUCAUAGGCCAUGGAAACUAGGAGCACCAUUUCGCUGCCAGUGAUGAAAUGAACAAAGGAAAUCUGGGCCAGGCAGGCAUCAAAAGAAAUAGUCUUGCGCUCAACCAGAAAGUCUGUAAUCAUUCUAAGGGUA [A52U A66G U132C] was 1.12.
Consider GUUAACGGUCAUAGGCCAUGGAAACUAGGAGCACCAUUUCGCUGCCAGUGAAGGGAUGAACAAAGAAAAUCUGGGCCAGGCAGGCAUCGAAAGAAAUAGUCUUGCGCUCAACAAGAAAGCCUGUAAUCAUUUUAAGGGUA [A54G A55G A89G C113A U120C], for which the self-cleavage worked out at 0.02.
The value for GUUAACGGUCAUAGGCCAUGGAAACUAGGAGCACCAUUUCGCUGCCAGUGAUGAAAUGAACCAAGAAAAUCUGGGCCAGGCAGGCAUCAUAGGAAAUAGUCUUGCGCUCAGCCAGAAAGUCUGUAAUCAUUUUAAGGGUA [A52U A62C A90U A92G A111G] was 0.04; that for GUUAACGGUCAUAGGCCAUGGAAACUAGGAGCACCAUUUCGCUGCCAGUGAUGAAAUGAACAAAGAAAAUCUGGGCCAGGCAGGCAUCAAAAGAAAUAGUCUUGCGCUCAACCAGAAGGUCCGUAAUCAUUUUAAGGGUA [A52U A118G U122C] was 0.55; that for GUUAACGGUCAUAGGCCAUGGAAACUAGGAGCACCAUUUCGCUGCCAGUGAGGAAAUGAACAAAGAAAAUCUGGGCCAGGCAGGCAUCAAAAGAAAUAGUCUUGCGCUCAACCAGAAAGUCCGUAAUCAUAUUAAGGGUA [A52G U122C U131A] was 0.73.
The value for GUUAACGGUCAUAGGCCAUGGAAACUAGGAGCACCAUUUCGCUGCCAGUGAAGGGAUGAACAAAGAAAAUCAGGGCCAGGCAGGCAUCAAAAGAAAUAGUCUUGCGCUCAACCAGAAAGUCUGUAAUCAUUUUAAGGAUA [A54G A55G U72A G138A] was 0.24; that for GUUAACGGUCAUAGGCCAUGGAAACUAGGAGCACCAUUUCGCUGCCAGUGAUGAAAUGAACAAAGAAAAUCUGGGCCAGGCAGGCAUCAAAGGAAACAGUCUUGCGCCCAACCAGAAAGUCCGUAAUCAUUUUAAGGGUA [A52U A92G U97C U108C U122C] was 0.
The value for GUUAACGGUCAUAGGCCAUGGAAACUAGGAGCACCAUUUCGCUGCCAGUGAUGAAAUGAAUAAGGAAAAUCUGGGCCAGGCAGGCAUCAAAAGAAAUAGUCUUGCGCUCAACCAGAAAGUCUGUAAUCAUUUUAUGGGCA [A52U C61U A64G A135U U139C] was 1.19; that for GUUAACGGUCAUAGGCCAUGGAAACUAGGAGCACCAUUUCGCUGCCAGUGAUGAAAUGAACAAAGAAAAUCUGGGCCAGGCAGGCAUCAAAGGAAAUAGUCUUGCGCUCAACCAGAAAGCCUGUAAUCAUUUUAAGGGUA [A52U A92G U120C] was 1.25.
With GUUAACGGUCAUAGGCCAUGGAAACUAGGAGCACCAUUUCGCUGCCAGUGAUGAAAUGAGCAAAGAAAAUCUGGGCCAGGCAGGCAUCAAAAGAAAUAGUCUUGCGCUCAACCAGUAAGUCUGUAAUCAUUUUAAGGGUA [A52U A60G A116U], the self-cleavage is 0.45.
Take GUUAACGGUCAUAGGCCAUGGAAACUAGGAGCACCAUUUCGCUGCCAGUGAUGAAAUGAACUAAGAAAGUCUUGGCCAGGCAGGCAUCAGAAGAAAUAGUCUUGCGCUCAACCAGAAAGCCCGUAAUCAUUUUAAGGGUA [A52U A62U A69G G73U A90G U120C U122C]: the self-cleavage came to 0.03.
For the variant GUUAACGGUCAUAGGCCAUGGAAACUAGGAGCACCAUUUCGCUGCCAGUGAUGAAAUGAACAAAGAAAAUCUGGGCCAGGCAGGCAUCAGAAGAAAUAGUCUUGCGCUCAACCAGAAAGUCUGUAGUCAUCUUAAGGGUA [A52U A90G A126G U131C], the self-cleavage was 0.78.
On to GUUAACGGUCAUAGGCCAUGGAAACUAGGAGCACCAUUUCGCUGCCAGUGAAGCAAUGAACAAAGAAAAUCUGGGCCAGGCAGGCACCAAAAGGAAUAGUCUUGCGCUCAACCAGAAAGUAUGUAAUCAUUUUAAGGGUA [A54C U87C A94G C121A], for which the self-cleavage amounted to 0.45.
The value for GUUAACGGUCAUAGGCCAUGGAAACUAGGAGCACCAUUUCGCUGCCAGUGAAGGGAUGAACAAAGAAAAUCUGGGCCAGGCAGGCAUCAAAAGAAAUAGUCCUGCGCCCAACCAGAAAGUCUGUAAUCAUUUUAAGGGUA [A54G A55G U102C U108C] was 0.03; that for GUUAACGGUCAUAGGCCAUGGAAACUAGGAGCACCAUUUCGCUGCCAGUGAUGAAAUGAACAAAGAAAAUCUGGGCCAGGCAGGCAUCAAAAGAAAUAGUCCUGCGCUCAACCAGAAAGCCUGUAAUCAUUUUUAGGGUA [A52U U102C U120C A134U] was 2.16.
The value for GUUAACGGUCAUAGGCCAUGGAAACUAGGAGCACCAUUUCGCUGCCAGUGAUGAAAUGAACAAGGAAAAUCUGGGCCAGGCAGGCAUCAAAAGAAAUAGUCAUGCGCUCAACCAGAAAGUCUGUAAUCAUUUUAAGGGUA [A52U A64G U102A] was 1.08; that for GUUAACGGUCAUAGGCCAUGGAAACUAGGAGCACCAUUUCGCUGCCAGUGAGGAAAUGAACAAAGAAAAUCUGGGCCAGGCAGGCAUCAAAAGAAAUAGUCUUGCGCUCAACCAGAAAGUCUGUAAUCAUCUAAAGGGUA [A52G U131C U133A] was 2.14; that for GUUAACGGUCAUAGGCCAUGGAAACUAGGAGCACCAUUUCGCUGCCAGUGAUGAAAUGAACAAAGAAAAUCUGGGCAAGGCAGGCAUCAAAAGAAAUAGUCUUGCGCUCAACCAGAAAGUCUGUGAUCAUUUUAAGGGUA [A52U C77A A125G] was 0.35.
The value for GUUAACGGUCAUAGGCCAUGGAAACUAGGAGCACCAUUUCGCUGCCAGUGAAAAAAUGAACAAAGAAAAUCUGGGCCAGGCAGGCAUCAUAAGAAAUAGUCUUGCGCUCAACCAGAAAGUCUGUAAACAUUUUAAGGGUA [G53A A90U U127A] was 1; that for GUUAACGGUCAUAGGCCAUGGAAACUAGGAGCACCAUUUCGCUGCCAGUGAUGAAAUGGACAAAGAAAAUCUGGGCCAGGCAGGCAUCAAAAGAAAUAGUCUUGCGCUCAACCAGAAAGUCCGUAAUCAUUUUAAGGGUA [A52U A59G U122C] was 0.75.
For GUUAACGGUCAUAGGCCAUGGAAACUAGGAGCACCAUUUCGCUGCCAGUGAUGAAAUGAACAAAGAAAAUCUGGGCCAGGCAGGCAUCAAGAGAAAUAGUCUUGCGCUCAACCAGAAAGUCUGUAGUCAUUUUAAGGGUA [A52U A91G A126G], the self-cleavage was 0.92.
